{"source": "paper PMC4336329", "about": "(PLoS ONE, 2015)", "note": "Hit rate of the full screen: of about 310,000 compounds, about 2,200 (0.71%) showed an effect of 50% or more. The effect is printed as a negative number. Some of the results follow."}
{"biological_target": "human ether-à-go-go-related gene (hERG) potassium channel (human, UniProt Q12809)", "sequence (Q12809 whole entry, looked up)": "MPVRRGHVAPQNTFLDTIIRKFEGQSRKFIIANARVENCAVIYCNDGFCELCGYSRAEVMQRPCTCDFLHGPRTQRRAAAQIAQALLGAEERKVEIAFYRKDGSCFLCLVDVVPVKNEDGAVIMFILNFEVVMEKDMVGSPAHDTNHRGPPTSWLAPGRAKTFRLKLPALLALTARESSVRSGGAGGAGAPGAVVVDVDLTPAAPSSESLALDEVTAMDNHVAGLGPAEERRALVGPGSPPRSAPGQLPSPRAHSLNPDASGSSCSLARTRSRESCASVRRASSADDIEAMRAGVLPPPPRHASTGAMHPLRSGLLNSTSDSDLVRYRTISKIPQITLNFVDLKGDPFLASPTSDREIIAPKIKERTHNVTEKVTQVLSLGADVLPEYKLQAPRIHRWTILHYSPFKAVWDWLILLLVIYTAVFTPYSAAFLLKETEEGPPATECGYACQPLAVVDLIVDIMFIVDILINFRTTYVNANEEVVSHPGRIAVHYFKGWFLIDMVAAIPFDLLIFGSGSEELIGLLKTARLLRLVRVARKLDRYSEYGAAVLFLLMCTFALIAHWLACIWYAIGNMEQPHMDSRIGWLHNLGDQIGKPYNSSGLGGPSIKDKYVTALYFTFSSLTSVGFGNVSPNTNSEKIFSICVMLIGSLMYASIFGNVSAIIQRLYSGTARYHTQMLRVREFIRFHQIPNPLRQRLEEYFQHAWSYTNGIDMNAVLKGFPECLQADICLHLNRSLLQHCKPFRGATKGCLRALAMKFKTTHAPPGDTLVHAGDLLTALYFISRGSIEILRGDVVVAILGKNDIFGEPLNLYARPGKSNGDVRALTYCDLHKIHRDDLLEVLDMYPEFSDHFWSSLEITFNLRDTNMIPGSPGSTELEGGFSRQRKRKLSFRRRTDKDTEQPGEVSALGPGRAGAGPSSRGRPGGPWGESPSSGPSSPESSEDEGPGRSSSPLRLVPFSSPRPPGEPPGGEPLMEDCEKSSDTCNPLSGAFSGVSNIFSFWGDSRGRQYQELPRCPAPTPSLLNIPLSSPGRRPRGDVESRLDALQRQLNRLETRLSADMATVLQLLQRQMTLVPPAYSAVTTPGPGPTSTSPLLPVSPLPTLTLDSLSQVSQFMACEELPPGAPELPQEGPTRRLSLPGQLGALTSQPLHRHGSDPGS", "experiment": "primary screen, population patch clamp on CHO cells stably expressing hERG", "units": {"hERG current change (%, negative = inhibition) at 1uM": "%"}}
{"smiles": "CC(C)(C)S(=O)(=O)c1cnc2c(-c3ccsc3)cnn2c1N", "hERG current change (%, negative = inhibition) at 1uM": 15.9}
{"smiles": "Cc1ccc(N2C(=O)c3ccccc3C2Nc2ccc(S(=O)(=O)N3CCOCC3)cc2)nc1", "note": "(stereo not drawn)", "hERG current change (%, negative = inhibition) at 1uM": 12.2}
{"smiles": "COC(=O)/C=C1/SC(=NC(=O)c2cccc([N+](=O)[O-])c2)NC1=O", "hERG current change (%, negative = inhibition) at 1uM": 14.9}
{"smiles": "CCCn1cnc2cc(NCc3ccccn3)ccc21", "hERG current change (%, negative = inhibition) at 1uM": -1.88}
{"smiles": "CS(=O)(=O)N(CC(=O)N1CCN(Cc2ccccc2)CC1)c1cccc([N+](=O)[O-])c1", "hERG current change (%, negative = inhibition) at 1uM": -73.1}
{"smiles": "Cc1cc(C)cc(N(CC(=O)NC2CCCCC2)C(=O)c2csnn2)c1", "hERG current change (%, negative = inhibition) at 1uM": 4.97}
{"smiles": "CCCCNC(=O)C1CCCN1C(=O)Nc1ccccc1", "note": "(stereo not drawn)", "hERG current change (%, negative = inhibition) at 1uM": 0.208}
{"smiles": "CCOC(=O)[C@@H]1[C@H]2COc3cc(OC)ccc3[C@H]2N2C(=O)N(c3cccc(Cl)c3)C(=O)[C@@]12C", "hERG current change (%, negative = inhibition) at 1uM": 6.14}
{"smiles": "Cc1ccc(-n2nc3c(c2NC(=O)c2c(-c4ccccc4Cl)noc2C)CSC3)cc1", "hERG current change (%, negative = inhibition) at 1uM": 4.26}
{"smiles": "O=C(CSc1nc2ccccc2o1)c1ccc2c(c1)OCCO2", "hERG current change (%, negative = inhibition) at 1uM": 3.01}
{"smiles": "Cn1c(SCCCC(=O)c2ccccc2)nnc1-c1ccncc1", "hERG current change (%, negative = inhibition) at 1uM": -24.9}
{"smiles": "COc1ccc(-n2c(Cc3cccn3C)nnc2SCC(=O)NCc2ccco2)cc1", "hERG current change (%, negative = inhibition) at 1uM": 2.11}
{"smiles": "Cc1c(C)[n+](=O)c(-c2ccco2)c(C)n1[O-]", "hERG current change (%, negative = inhibition) at 1uM": 5.42}
{"smiles": "Cc1ccc(/C=N/N2CCN(Cc3ccc(C)cc3)CC2)cc1", "hERG current change (%, negative = inhibition) at 1uM": 6.78}
{"smiles": "CCCCN(C(=O)c1ccccc1Br)C1CCS(=O)(=O)C1", "note": "(stereo not drawn)", "hERG current change (%, negative = inhibition) at 1uM": 3.65}
{"smiles": "COc1ccc(NC(=S)NC(NC(=O)CCl)C(Cl)(Cl)Cl)c([N+](=O)[O-])c1", "note": "(stereo not drawn)", "hERG current change (%, negative = inhibition) at 1uM": 17.5}
{"smiles": "CCOc1cc(/C=N/O)cc(Cl)c1OC", "hERG current change (%, negative = inhibition) at 1uM": 8.65}
{"smiles": "Cc1sc2ncnc(NCCCN3CCCC3=O)c2c1C", "hERG current change (%, negative = inhibition) at 1uM": 6.96}
{"smiles": "CC1=N/C(=C\\c2ccc3c(c2)OCO3)C(=O)N1c1ccc(C(=O)O)cc1", "hERG current change (%, negative = inhibition) at 1uM": 9.67}
{"smiles": "Cn1nnnc1SCC(=O)NC(=O)Cc1ccccc1", "hERG current change (%, negative = inhibition) at 1uM": 6.79}
{"smiles": "CC(C)(C)SCCNS(=O)(=O)c1ccc(F)cc1", "hERG current change (%, negative = inhibition) at 1uM": 11.1}
{"smiles": "Oc1ccc(C[C@@H]2CNCCN2CC2CCCCC2)cc1", "hERG current change (%, negative = inhibition) at 1uM": 10.6}
{"smiles": "O=C(/C=C/c1ccco1)NCc1ccc(F)cc1", "hERG current change (%, negative = inhibition) at 1uM": 12.3}
{"smiles": "Cc1ccc(S(=O)(=O)NC(CCc2ccccc2)CC(=O)C(C)(C)C)cc1", "note": "(stereo not drawn)", "hERG current change (%, negative = inhibition) at 1uM": 9.2}
{"smiles": "CN1CCN(c2ccc([N+](=O)[O-])cc2C(=O)Nc2ccccc2)CC1", "hERG current change (%, negative = inhibition) at 1uM": -59.8}
{"smiles": "COc1ccc(CN(C)C(=O)C(Cc2ccccc2)NC(=O)c2ccccc2)c(OC)c1", "note": "(stereo not drawn)", "hERG current change (%, negative = inhibition) at 1uM": 16.5}
{"smiles": "O=C(CSc1nnc(-c2ccc(O)cc2)n1Cc1ccco1)N1CCc2ccccc2C1", "hERG current change (%, negative = inhibition) at 1uM": 3.52}
{"smiles": "COCCn1c(=S)[nH]c2cc(C(=O)NCCCN3CCOCC3)ccc2c1=O", "hERG current change (%, negative = inhibition) at 1uM": 9.93}
{"smiles": "Cc1ccc(NC(=O)c2nc(S(=O)(=O)Cc3ccccc3C)ncc2Cl)cc1C", "hERG current change (%, negative = inhibition) at 1uM": 22.5}
{"smiles": "c1ccc(Cn2nnc3c(NCC4CCCO4)ncnc32)cc1", "note": "(stereo not drawn)", "hERG current change (%, negative = inhibition) at 1uM": 16.2}
{"smiles": "O=C(c1ccc(F)cc1)N1C2CCC1CC(O)(c1ccccc1F)C2", "note": "(stereo not drawn)", "hERG current change (%, negative = inhibition) at 1uM": 5.32}
{"smiles": "CC(C)(C)Nc1nc(Cl)nc(NCCN2CCOCC2)n1", "hERG current change (%, negative = inhibition) at 1uM": 6.5}
{"smiles": "CC(=O)NC(=S)Nc1ccc(NC(=O)c2cccnc2)cc1", "hERG current change (%, negative = inhibition) at 1uM": 13.3}
{"smiles": "CCCc1cc(=O)oc2c(C)c(OCC(=O)NCCCn3ccnc3)ccc12", "hERG current change (%, negative = inhibition) at 1uM": -70}
{"smiles": "NS(=O)(=O)c1ccc(CCNC(=O)Cc2ccc(Cl)cc2)cc1", "hERG current change (%, negative = inhibition) at 1uM": 9.39}
{"smiles": "COc1ccc(CNC(=O)CCCN2C(=O)NC3(CCCC3)C2=O)cc1", "hERG current change (%, negative = inhibition) at 1uM": -2.63}
{"smiles": "C/C(=N\\NC(=O)c1cccc(Br)c1)c1cccnc1", "hERG current change (%, negative = inhibition) at 1uM": -4.15}
{"smiles": "Cc1cc(C)cc(NC(=O)c2cc(S(=O)(=O)NCc3ccco3)ccc2F)c1", "hERG current change (%, negative = inhibition) at 1uM": 12.5}
{"smiles": "CCOc1ccc(S(=O)(=O)n2ccnc2C)cc1", "hERG current change (%, negative = inhibition) at 1uM": 12}
{"smiles": "CCn1c(Cc2ccccc2)n[nH]c1=S", "hERG current change (%, negative = inhibition) at 1uM": 4.53}
{"smiles": "O=C(NN=C1CCN(Cc2ccccc2)CC1)c1cccc(S(=O)(=O)Nc2ccccc2Cl)c1", "hERG current change (%, negative = inhibition) at 1uM": -2}
{"smiles": "COc1cc(/C=C2/N=C(c3ccccc3F)OC2=O)cc(Cl)c1OS(C)(=O)=O", "hERG current change (%, negative = inhibition) at 1uM": 12.1}
{"smiles": "Cc1cccc2c(N)c3c(nc12)N(C)CC3.O=C(O)C(=O)O", "hERG current change (%, negative = inhibition) at 1uM": 7.57}
{"smiles": "CNC(=S)NCCc1ccc(OC)c(OC)c1", "hERG current change (%, negative = inhibition) at 1uM": 2.03}
{"smiles": "COc1ccccc1-c1cnn2c(NCc3ccccc3)cc(C)nc12", "hERG current change (%, negative = inhibition) at 1uM": 15.4}
